Test results from the supplement of paper PMC6531468.
This is one part of the list. These are enrichments in a pooled selection; single values are uncertain. Each score is taken over the longer molecules that contain the sequence shown.

What follows are sequences tested on IMP3 KH1-4 (assay: 6-mer SELEX enrichment z-score vs GST control; IMP3 is the RNA-binding protein IGF2BP3; higher = more enriched by binding). Settings: construct: KH1-4 (164-579); SELEX round: R4.
Description: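 SELEX-seq with GST-tagged IMP3 KH1-4 (Pro164-Lys579) and an N40 RNA pool, round 4. 6-mer z-score of sequence-tag enrichment normalised to the corresponding GST SELEX round; RNA k-mers written as DNA (T for U).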

IMP3 KH1-4, sequence (chain, as listed by the source): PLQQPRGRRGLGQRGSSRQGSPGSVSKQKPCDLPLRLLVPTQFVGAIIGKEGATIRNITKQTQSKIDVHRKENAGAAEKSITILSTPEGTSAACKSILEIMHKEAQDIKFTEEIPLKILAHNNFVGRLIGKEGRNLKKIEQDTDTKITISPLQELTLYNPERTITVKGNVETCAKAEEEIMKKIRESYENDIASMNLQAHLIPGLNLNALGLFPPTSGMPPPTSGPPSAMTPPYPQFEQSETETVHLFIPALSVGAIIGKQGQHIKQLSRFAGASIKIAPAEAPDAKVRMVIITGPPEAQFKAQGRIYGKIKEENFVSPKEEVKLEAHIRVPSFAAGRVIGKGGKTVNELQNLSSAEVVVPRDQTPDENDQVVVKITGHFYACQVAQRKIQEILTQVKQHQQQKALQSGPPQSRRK

Row | Sequence | 6-mer SELEX enrichment z-score
1 | CCTACC | -1.35
2 | GTCGTC | -0.055
3 | CAGATG | 0.481
4 | CCATTG | 0.249
5 | GTTGGT | -0.12
6 | GCGTTC | -0.846
7 | ATGGGC | -0.202
8 | AAAGCT | -0.918
9 | GGTTCC | -0.425
10 | TATCGC | 0.535
11 | ATCGTT | 0.175
12 | GCAGGA | 0.9
13 | CTAATC | 0.061
14 | TGGTTT | 0.006
15 | CCGCCT | -0.451
16 | AGCCCC | -0.113
17 | TCTGCT | 0.261
18 | GAATTT | 0.77
19 | CACACG | 0.758
20 | CCGGAC | -0.732

Row | Sequence | 6-mer SELEX enrichment z-score
21 | CTCAGT | -0.011
22 | GCACTA | 1.13
23 | TCCGAT | -0.333
24 | ACCAGA | -0.777
25 | GATACG | 0.338
26 | AATAGA | 1.31
27 | ATACGA | 0.705
28 | TCGTCG | -0.188
29 | CGAAGG | -0.732
30 | TTCAAT | 1.02
31 | CCACGC | -0.561
32 | CGACCT | -1.21
33 | CTGGGC | -0.647
34 | AACGTT | -1.03
35 | GCTCCA | 0.123
36 | GGGGGA | 0.955
37 | ATTGCT | 0.587
38 | CAGAAA | -0.107
39 | TCTCAT | 0.497
40 | CCTCCA | -0.115
